Some of these densities may be calculated back from excess volumes.
Assay: xn = mol fraction of the nth substance listed
Conditions: 298.15 K, 100 kPa

C1CCOC1 + COC(=O)OC
Conditions	mass density [kg/m3]
x2 = 0.1237	904.3
x2 = 0.1349	906.8
x2 = 0.2361	924.8
x2 = 0.3011	935.9
x2 = 0.3218	939.6
x2 = 0.3502	944.7
x2 = 0.4333	959.6
x2 = 0.4377	960.4
x2 = 0.4702	966.2
x2 = 0.4929	970.3
x2 = 0.548	980.2
x2 = 0.7095	1009.6
x2 = 0.8261	1031
x2 = 0.9697	1057.7

C1CCOCC1 + COC(=O)OC
Conditions	mass density [kg/m3]
x1 = 0.0128	1060.3
x1 = 0.0146	1059.9
x2 = 0.0187	881.8
x2 = 0.0848	891.4
x2 = 0.1845	906.6
x2 = 0.2583	918.3
x2 = 0.4147	944.7
x2 = 0.4446	949.9
x2 = 0.473	955
x2 = 0.4953	959
x2 = 0.5346	966.3
x2 = 0.5952	977.7
x2 = 0.5968	978
x2 = 0.6618	990.6
x2 = 0.746	1007.6
x2 = 0.8006	1018.9
x2 = 0.8812	1036.3
x2 = 0.9072	1042.1

C1COCCO1 + COC(=O)OC
Conditions	mass density [kg/m3]
x2 = 0.0173	1028.6
x2 = 0.1766	1033.1
x2 = 0.3783	1039.5
x2 = 0.4669	1042.6
x2 = 0.4758	1042.9
x2 = 0.5098	1044.1
x2 = 0.56	1045.5
x2 = 0.6417	1048.9
x2 = 0.724	1052.1
x2 = 0.7668	1053.8
x2 = 0.8544	1057.3
x2 = 0.9108	1059.6

C1COCO1 + COC(=O)OC
Conditions	mass density [kg/m3]
x2 = 0.0396	1058.9
x2 = 0.1136	1059.2
x2 = 0.1891	1059.6
x2 = 0.2516	1059.9
x2 = 0.2875	1060
x2 = 0.3347	1060.3
x2 = 0.3646	1060.4
x2 = 0.3996	1060.6
x2 = 0.419	1060.6
x2 = 0.4601	1060.8
x2 = 0.5048	1061
x2 = 0.5236	1061.1
x2 = 0.582	1061.4
x2 = 0.6563	1061.7
x2 = 0.7058	1061.9
x2 = 0.8082	1062.4
x2 = 0.8669	1062.7

COCCOC + COC(=O)OC
Conditions	mass density [kg/m3]
x1 = 0.0157	1059.4
x2 = 0.087	876.5
x2 = 0.2114	898
x2 = 0.2677	908
x2 = 0.3292	919.2
x2 = 0.378	928.9
x2 = 0.3792	928.6
x2 = 0.4013	932.8
x2 = 0.4328	938.8
x2 = 0.495	951
x2 = 0.5065	953.2
x2 = 0.5509	962.1
x2 = 0.6579	984.3
x2 = 0.7347	1000.1
x2 = 0.8064	1017
x2 = 0.8606	1029.5
x2 = 0.9243	1044.7

COCOC + COC(=O)OC
Conditions	mass density [kg/m3]
x1 = 0.0159	1059.9
x2 = 0.0165	860.3
x2 = 0.0996	877.1
x2 = 0.1676	890.8
x2 = 0.2915	916.1
x2 = 0.3434	926.6
x2 = 0.4013	938.5
x2 = 0.4448	947.4
x2 = 0.4698	952.5
x2 = 0.5011	958.9
x2 = 0.5614	971.3
x2 = 0.7266	1005.8
x2 = 0.7976	1020.4
x2 = 0.8348	1028.3
x2 = 0.9228	1046.9

Reference: a compilation of properties of binary mixtures (doi:10.1021/je00013a028)
